Measurements as given in publication PMC4336329 (PLoS ONE, 2015).
About 2,200 (0.71%) of roughly 310,000 compounds showed an effect of 50% or more. The effect is printed as a negative number. This is one part of the list. Where a SMILES comes first, the peptide text is derived from it. The star is where a group is joined. Boc = CC(C)(C)OC(=O)*; OtBu = CC(C)(C)O*

target: human ether-à-go-go-related gene (hERG) potassium channel (human, UniProt Q12809); test: primary screen, population patch clamp on CHO cells stably expressing hERG
Sequence (Q12809 whole entry, looked up): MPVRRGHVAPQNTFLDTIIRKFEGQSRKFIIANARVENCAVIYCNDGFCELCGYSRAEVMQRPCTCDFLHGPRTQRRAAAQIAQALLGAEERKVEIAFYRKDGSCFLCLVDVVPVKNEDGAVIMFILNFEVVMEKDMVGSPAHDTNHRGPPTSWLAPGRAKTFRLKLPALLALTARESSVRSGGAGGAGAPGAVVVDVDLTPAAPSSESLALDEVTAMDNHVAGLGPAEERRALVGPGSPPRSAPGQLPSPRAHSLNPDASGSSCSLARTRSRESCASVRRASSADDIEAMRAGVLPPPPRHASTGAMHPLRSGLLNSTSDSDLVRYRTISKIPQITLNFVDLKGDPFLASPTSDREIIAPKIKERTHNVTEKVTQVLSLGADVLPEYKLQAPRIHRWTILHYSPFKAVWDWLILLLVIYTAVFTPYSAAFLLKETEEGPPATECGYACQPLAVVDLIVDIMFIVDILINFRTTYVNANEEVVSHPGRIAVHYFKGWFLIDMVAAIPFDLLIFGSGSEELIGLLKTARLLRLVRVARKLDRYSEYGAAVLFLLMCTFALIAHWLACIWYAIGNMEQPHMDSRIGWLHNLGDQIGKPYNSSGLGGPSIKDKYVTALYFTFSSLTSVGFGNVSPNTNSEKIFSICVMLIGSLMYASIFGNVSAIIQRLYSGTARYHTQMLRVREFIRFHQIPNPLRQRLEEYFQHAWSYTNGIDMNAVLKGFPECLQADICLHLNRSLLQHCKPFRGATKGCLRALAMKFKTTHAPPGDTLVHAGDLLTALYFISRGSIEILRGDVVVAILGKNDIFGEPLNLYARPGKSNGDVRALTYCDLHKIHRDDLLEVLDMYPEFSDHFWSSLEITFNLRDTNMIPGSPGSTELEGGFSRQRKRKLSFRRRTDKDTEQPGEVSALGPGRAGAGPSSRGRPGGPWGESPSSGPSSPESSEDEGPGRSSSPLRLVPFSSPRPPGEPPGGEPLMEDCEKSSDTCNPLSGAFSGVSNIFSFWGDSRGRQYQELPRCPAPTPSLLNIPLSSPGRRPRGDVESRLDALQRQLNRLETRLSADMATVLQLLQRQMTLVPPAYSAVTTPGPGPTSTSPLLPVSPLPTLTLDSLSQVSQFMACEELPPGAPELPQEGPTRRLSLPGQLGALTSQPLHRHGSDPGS

Row | Compound | hERG current change (%, negative = inhibition) at 1uM
1 | CCOC(=O)C1=C(C)NC2=C(C(=O)CCC2)C1c1cn(Cc2ccc(Cl)cc2Cl)nc1-c1ccccc1 (stereo not shown) | 6.72%
2 | O=C(O)Cc1cccc2ccccc12 | 12.8%
3 | C=CCNCCOCCOc1ccccc1-c1ccccc1.O=C(O)C(=O)O | -4.62%
4 | Cc1cc(=O)[nH]c2ccc(S(=O)(=O)NCc3ccccc3)cc12 | -8.39%
5 | COc1cc2c(cc1NC(=O)c1cccc([N+](=O)[O-])c1C)oc1ccccc12 | -6.52%
6 | COC(=O)C(Cc1ccc(O)cc1)NC(=O)C(CC(=O)OC(C)(C)C)NC(=O)OC(C)(C)C (stereo not shown) (Boc-Asp(OtBu)-Tyr-OMe; configuration not given here) | 2.84%
7 | COc1ccc(-c2cccc(C(=O)NCC(=O)O)c2)cc1 | 2.01%
8 | CC1=NN(C(=O)c2cccc(Cn3nc(C)c([N+](=O)[O-])c3C)c2)C(O)(C(F)(F)F)C1 (stereo not shown) | -0.0693%
9 | CC(C)CCNC(=O)CN1C(=O)CN=C(c2ccccc2)c2ccccc21 | 10%
10 | O=C(NCCS(=O)(=O)N1CCCCC1)c1ccccc1 | 8.41%
11 | Cc1cc2cc(C#N)c(N3CCN(S(C)(=O)=O)CC3)nc2cc1C | 0.625%
12 | CCn1ncc(Br)c1C(=O)NC(C)c1ccccc1 (stereo not shown) | 6.29%
13 | Cc1ccc(/C=N/NC(=O)c2csc3c2CCCC3)cc1 | 12.5%
14 | O=C(Nc1ccccc1)c1ccc(S(=O)(=O)N2CCCC2)cc1 | -0.0057%
15 | O=C1c2ccccc2C(=O)N1CCc1nc2ccccc2c(=O)n1CCCn1ccnc1 | -35.8%
16 | Cc1sc2nc(C(C)C)oc(=O)c2c1C | 8.75%
17 | COCCNC(=O)/C(=C/c1ccccc1Cl)c1ccccc1 | 13.7%
18 | COc1ccc(NC(=O)c2ccc(=O)[nH]c2)cc1S(=O)(=O)N1CCCCC1 | 0.308%
19 | Cc1ccc(N2C(=S)SC3CS(=O)(=O)CC32)cc1 (stereo not shown) | 6.01%
20 | Cc1nc2c3c(sc2c(=O)[nH]1)NC(=O)CC3c1ccccc1Cl (stereo not shown) | 5.23%
21 | COc1ccccc1CNC(=O)CCNC(=O)Cn1ccc2ccccc2c1=O | 4.62%
22 | N=C1c2ccccc2CN1c1ccc(F)c([N+](=O)[O-])c1 | 7.4%

Row | Compound | hERG current change (%, negative = inhibition) at 1uM
23 | CC(=O)Nc1ccc(NS(=O)(=O)c2cc(-c3n[nH]c(=O)c4ccccc34)ccc2C)cc1 | 13.3%
24 | CCOC(=O)c1c(C)[nH]c(C(=O)OCC(=O)c2ccccc2)c1C | 8.37%
25 | Cc1ccc(NC(=O)NNS(=O)(=O)c2ccc(Br)cc2)cc1 | 9.15%
26 | COc1ccccc1-n1c(SCC(=O)Nc2cccc(S(N)(=O)=O)c2)nc2ccccc2c1=O | 11.8%
27 | CCN(CC)CC.CCn1c(=S)sc2c(=O)n(-c3ccccc3)c(=S)[nH]c21 | 10.8%
28 | COc1ccccc1-n1c(=O)c2c3c(sc2n2c(SC(C)C)nnc12)CCC3 | 17%
29 | CNC(=O)Oc1cccc2ccccc12 | 12.7%
30 | CSCSC1=C(C#N)C(c2ccc(Cl)cc2)C(C(C)=O)=C(C)N1 (stereo not shown) | -0.151%
31 | CCC1CCCCN1C(=O)c1ccc(OC2CCN(C(=O)CCOC)CC2)cc1 (stereo not shown) | 13.6%
32 | COc1ccc(CCNC(=O)C(=O)NCC2CCCO2)cc1 (stereo not shown) | -8.46%
33 | Cc1cc(OCCCCCN2CCCC2)ccc1Cl.O=C(O)C(=O)O | -15%
34 | CCc1ccccc1NC(=O)N1CCCc2ccccc21 | 6.9%
35 | Cc1nn(-c2ccccc2)c(Cl)c1C(=O)NCC(=O)O | 23.8%
36 | Cc1ccc(Nc2c([N+](=O)[O-])cc(C(=O)N3CC(=O)Nc4ccccc43)cc2[N+](=O)[O-])c(C)c1 | 14.9%
37 | Cc1c(C(=O)Nc2c(C)n(C)n(-c3ccccc3)c2=O)oc2ccc(Cl)cc12 | -12.5%
38 | Nc1[nH]n(-c2ccccc2)c(=O)c1N=Nc1ccccc1 | 2.63%
39 | CCCCCCNC(=O)c1cc(-c2ccco2)nc2ccccc12 | 7.12%
40 | Cc1ccc(-c2cc(C)nc3nc(N)nn23)cc1 | 4.08%
41 | O=C(CCS(=O)(=O)c1ccc(F)cc1)Nc1nnc(-c2ccc(F)cc2)o1 | -1.98%
42 | COc1ccc2oc(=O)c(C(=O)N3CCN(C(=O)c4ccccc4)CC3)cc2c1 | 14.2%
43 | COc1ccc(Cl)cc1C(=O)OCC(=O)c1ccc[nH]1 | 11.3%
44 | COc1nccc(C(F)(F)F)c1C(=O)Nc1ccc(Cl)cc1 | 5.29%

Row | Compound | hERG current change (%, negative = inhibition) at 1uM
45 | O=C(CCN1CCN(c2ccccc2)CC1)Nc1ccccc1 | 5.75%
46 | C=CCc1c(C)nc(N2CCSCC2)[nH]c1=O | 13.2%
47 | O=C(NNc1nc(-c2ccccc2)cs1)c1ccc(F)cc1 | 3.41%
48 | COc1ccc2c(c1OC)C(=O)OC2CC(=O)c1ccc(O)c(O)c1 (stereo not shown) | 20.6%
49 | Cc1cc(C(=O)N2CCN(C(=O)C3CCCO3)CC2)no1 (stereo not shown) | 3.66%
50 | Cc1cccc(OCC(=O)N2CCN(Cc3ccncc3)CC2)c1.O=C(O)C(=O)O | 10.2%
51 | Cn1nccc1C(=O)OCC(=O)Nc1cccc(Cl)c1 | 6.89%
52 | COc1ccc([N+](=O)[O-])cc1NC(=O)c1ccc(CN(c2ccccc2)S(C)(=O)=O)cc1 | 4.3%
53 | O=C(NCC1CCCO1)c1ccccc1-c1nc(-c2ccc(Cl)cc2)no1 (stereo not shown) | -0.554%
54 | O=C(CNC(=O)c1ccc(Br)cc1)c1ccc(Br)cc1 | 14.6%
55 | CCN(CCNC(=O)CN1CCN(Cc2ccc(Cl)cc2)C1=O)c1ccccc1 | -8.93%
56 | CCc1ccc(NC(=O)CSCc2ccc(C(=O)O)cc2)cc1 | 10.8%
57 | CCc1nnc(NS(=O)(=O)c2ccc(NC(=O)c3cccc(Br)c3)cc2)s1 | 19.8%
58 | COc1ccccc1OCC(=O)N1CCCC(N(C)Cc2ccccc2)C1 (stereo not shown) | -17.9%
59 | COc1ccc(N(CC(=O)Nc2ccccc2C(=O)NCc2ccco2)S(C)(=O)=O)cc1 | 5.32%
60 | COc1ccc2c(c1)[C@@H]1[C@H](CO2)[C@H](c2ccccc2)[C@]2(C)C(=O)Nc3ccc(C)cc3C(=O)N12 | -6.68%
61 | CCn1c(C)cc(/C=C2/SC(=O)N(CC(=O)N3CCCC3)C2=O)c1C | 8.82%
62 | COc1ccc(C(=O)NC2CC2)cc1OC1CCN(Cc2ccc(Cl)cc2)CC1 | -86.8%
63 | CN(C)c1nc(N(C)C)nc(N(C#N)CCOc2ccccc2)n1 | 14.9%
64 | Cc1cccc(C(=O)NC(C)C(=O)NC(c2nc3ccccc3[nH]2)C(C)C)c1 (stereo not shown) | 6.44%
65 | COCCN(CC1CCCN(C2Cc3ccccc3C2)C1)C(=O)c1cccs1 (stereo not shown) | -35.4%
66 | CC1CCCN(CC(=O)N2CCCc3ccccc32)C1.[O-][Cl+3]([O-])([O-])O (stereo not shown) | 9.38%

Row | Compound | hERG current change (%, negative = inhibition) at 1uM
67 | CCN(C(=O)CSc1nc2ccccc2c(=O)n1-c1ccc(C)cc1)C1CCS(=O)(=O)C1 (stereo not shown) | 1.16%
68 | CCCCCCC(C)OC(=O)c1ccccc1C(=O)O (stereo not shown) | 14.4%
69 | COc1cc(/C=C2\SC(=S)N(CCC(=O)Nc3cccc(O)c3)C2=O)cc(OC)c1OC | 12.4%
70 | O=P(O)(Oc1ccccc1)OC(c1ccccc1)C(F)(F)F (stereo not shown) | 18.5%
71 | Cc1cc(C)nc(NNC(=O)NC2CCCCC2)n1 | 2.67%
72 | CCn1cc(C(=O)N2CCCCC2)c(=O)c2cc(S(=O)(=O)N3CCC(C)CC3)ccc21 | -6.51%
73 | CC(C(=O)Nc1ccc2c(c1)OCCO2)n1nnc(-c2ccccc2)n1 (stereo not shown) | 8.75%
74 | O=C(Cn1c(=O)oc2ccccc21)NCC1COc2ccccc2O1 (stereo not shown) | 19.6%
75 | COc1ccccc1/C=C/C(=O)OCC(=O)NNC(=O)c1ccccc1 | 5.96%
76 | O=C(CSCc1ccc(Cl)cc1Cl)Nc1c[nH]c(=O)[nH]c1=O | 12.4%
77 | CCn1cc(S(=O)(=O)NCCc2ccc(F)cc2)cn1 | -2.56%
78 | O=C(CNS(=O)(=O)c1cccs1)N1CCCC1 | 12.1%
79 | Cc1cccc(N(C(=O)Cn2nnc3ccccc32)C(C(=O)NC(C)(C)C)c2ccsc2)c1C (stereo not shown) | 14.5%
80 | CCN(c1ccccc1)S(=O)(=O)c1ccc(Cl)c(C(=O)N2CCCC2)c1 | -0.349%
81 | O=C(NN1C(=O)c2ccccc2NC1c1cccnc1)c1ccccc1 (stereo not shown) | 3.45%
82 | CCC(=O)c1ccc(OCC(O)Cn2nc(C)c(C(C)=O)c2C)cc1 (stereo not shown) | 4.75%
83 | CCOc1ccc(CCNC(=O)c2cccc(S(=O)(=O)N3CCOCC3)c2)cc1OCC | 5.02%
84 | Cc1ccc(Cl)cc1NC(=O)c1ccccc1OCC(=O)Nc1ccc(Cl)cc1 | -5.79%
85 | CCOc1ccc2nc(NCCNC(=O)CC)c(C#N)cc2c1 | 6.16%
86 | O=C(COc1ccccc1Cl)NC(=O)NC1CCCCC1 | 9.41%
87 | CCN(CC)C(=O)c1c(C)nc2ccccn12 | 9.13%
88 | Clc1ccc(N/N=C/c2cccs2)nn1 | 10.2%
